In all, about 270,000 compounds went through this assay and about 5,800 (2.1%) were called active. Inconclusive results, whose numbers are uncertain, are shown with a selection of clear calls. The call rests on the fitted dose curve; in most records, active means well fitted inhibition curve with a large enough effect; inconclusive means small, poorly fitted or top-dose-only effect; inactive means flat fitted curve, though single readings scatter. Potencies of inconclusive entries are doubtful fits and often do not repeat.
What follows are compounds tested against Microtubule-associated protein tau (Homo sapiens) (UniProt P10636) (assay: qHTS for Inhibitors of Tau Fibril Formation, Thioflavin T Binding). Settings: recombinant tau K18 P301L (four-repeat tau fragment), heparin-induced fibrillization, ThT fluorescence; series mostly up to 57.4 µM.
Chain of UniProt P10636 (P10636 whole entry, looked up, the tested form may be a part): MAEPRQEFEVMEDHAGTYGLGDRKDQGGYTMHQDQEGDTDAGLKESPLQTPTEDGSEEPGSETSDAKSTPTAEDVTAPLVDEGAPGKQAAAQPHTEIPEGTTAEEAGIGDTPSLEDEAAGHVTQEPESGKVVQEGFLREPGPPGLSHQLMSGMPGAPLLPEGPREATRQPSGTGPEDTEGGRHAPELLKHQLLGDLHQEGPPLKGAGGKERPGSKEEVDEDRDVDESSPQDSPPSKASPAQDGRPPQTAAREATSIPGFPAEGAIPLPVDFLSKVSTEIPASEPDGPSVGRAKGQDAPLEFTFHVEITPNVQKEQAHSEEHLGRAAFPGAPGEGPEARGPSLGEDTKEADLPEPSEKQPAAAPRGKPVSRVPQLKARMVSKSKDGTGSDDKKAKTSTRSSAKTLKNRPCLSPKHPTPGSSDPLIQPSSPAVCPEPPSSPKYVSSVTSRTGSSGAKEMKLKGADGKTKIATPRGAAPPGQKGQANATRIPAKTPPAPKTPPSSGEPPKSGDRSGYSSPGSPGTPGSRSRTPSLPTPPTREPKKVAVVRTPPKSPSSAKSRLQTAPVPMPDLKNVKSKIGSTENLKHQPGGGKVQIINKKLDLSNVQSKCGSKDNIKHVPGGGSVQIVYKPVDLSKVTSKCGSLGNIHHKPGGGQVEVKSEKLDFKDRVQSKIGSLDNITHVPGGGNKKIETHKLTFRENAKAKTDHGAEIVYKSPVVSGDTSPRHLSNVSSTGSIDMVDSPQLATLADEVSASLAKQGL
Procedure, shortened: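 Heparin-induced (20 uM) aggregation of recombinant human K18 P301L tau, 15 uM unlabeled with 0.24 uM labeled, pH 7 acetate buffer, 6 hr at 37 C with compound. Fibrils quantified by 30 uM ThT fluorescence after 1 hr ambient incubation.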
Further: nearly all actives have a fitted effect of over 55% in size.
Potency means the concentration at half of the fitted maximal effect; tags describe the fitted curve by direction and shape.

Structure (SMILES) | Potency
Cc1cccc2sc(NC(=O)c3ccc(NS(=O)(=O)c4cccs4)cc3)nc12 | inconclusive: 28.2 µM [activator, partial curve]
Cc1cc(C)nc(N(C#N)CN2C(=O)c3ccccc3S2(=O)=O)n1 | inconclusive: 28.2 µM [inhibitor, partial curve]
Nc1ncnc(Sc2ccccc2)c1[N+](=O)[O-] | inconclusive: 15.8 µM [inhibitor, partial curve]
O=C(Nc1ccc(/C=C/c2nc3ccccc3o2)cc1)c1cccc(C(F)(F)F)c1 | inconclusive: 17.8 µM [inhibitor, partial curve]
COc1ccccc1/C=N/NC(=O)c1sc(C)nc1C | inconclusive: 17.8 µM [inhibitor, single point]
CS(=O)(=O)c1cccc(-c2nnc(NC(=O)c3ccc4c(c3)OCCO4)o2)c1 | inactive
CC1CN(c2oc(-c3ccccc3Cl)nc2C#N)CC(C)O1 (stereo not given) | inactive
S=c1[nH]nc(-c2ccccn2)n1/N=C/c1cccc2ccccc12 | inactive
COc1ccc(OC)c2sc(NC(=O)C3CC3)nc12 | inconclusive: 22.4 µM [inhibitor, single point]
Cc1ccc(NC(=O)C(Cc2ccccc2)NS(=O)(=O)c2ccc3c(c2)CCC(=O)N3)cc1 (stereo not given) | inactive
C=CCNC(=O)c1ccc([N+](=O)[O-])c(Cl)c1 | inactive
Clc1ccc2c(N/N=C/c3ccccc3Br)ccnc2c1 | inconclusive: 2 µM [inhibitor, full curve]
N#C/C(=C\c1ccc(OC(=O)c2ccccn2)cc1)C(N)=O | inconclusive: 8.91 µM [inhibitor, partial curve]
Cc1nn(C)c2nc(NNC(=O)Nc3cc(Cl)nc(Cl)c3)cc(C(C)C)c12 | inactive
O=C(COC(=O)CC1CC2CCC1C2)NC(=O)NCc1ccco1 (stereo not given) | inactive
COc1cc(NC(=O)Cn2ccn(-c3cc(C)cc(C)c3)c(=O)c2=O)cc(OC)c1 | inconclusive: 2.82 µM [inhibitor, full curve, poor fit]
Cc1cc(C)cc(NC(=O)CSc2nc(=O)[nH]c3c2CCC3)c1 | inconclusive: 0.891 µM [inhibitor, full curve, poor fit]
CSCCC(=O)Nc1nc(-c2ccccn2)cs1 | inconclusive: 31.6 µM [inhibitor, partial curve]
Cc1ccc(NC(=O)CN2C(=O)S/C(=C/c3ccc(-c4cc(C(=O)O)ccc4C)o3)C2=O)cc1C | inconclusive: 17.8 µM [inhibitor, partial curve]
O=c1cc(-c2cc(O)c(O)c(O)c2)oc2cc(O)cc(O)c12 | active: 7.94 µM
Cc1cccc2cc(C(c3nnnn3CC3CCCO3)N3CCCc4ccccc43)c(=O)[nH]c12 (stereo not given) | inconclusive: 3.55 µM [inhibitor, partial curve]
CCN(CC)S(=O)(=O)c1cc(C(=O)Nc2cc(Cl)ccc2N2CCN(C)CC2)ccc1Cl | inconclusive: 22.4 µM [inhibitor, partial curve]
CN(C)c1oc(-c2ccc(COc3ccccc3)o2)nc1C#N | inconclusive: 20 µM [inhibitor, single point]

Structure (SMILES) | Potency
COc1ccc2c(c1)CCc1sc(NC(=O)c3ccc(Br)cc3)nc1-2 | inconclusive: 8.91 µM [inhibitor, partial curve]
CC(C)(C)c1ccc(Oc2nc3ccccn3c(=O)c2/C=C(\C#N)c2nc3ccccc3s2)cc1 | inconclusive: 12.6 µM [inhibitor, partial curve]
COc1cc2c(cc1OC)C(c1ccccc1)CN(C)CC2 (stereo not given) | inactive
CCc1ccc(NC(=O)CC2C(=O)N(c3ccc(C)cc3)C(=O)N2C2CCCC2)cc1 (stereo not given) | inactive
CN(C)/C=C1/Oc2c(ccc3ccccc23)C1=O | inconclusive: 44.7 µM [inhibitor, single point]
CCC(O)(CC)C(=O)N/N=C/c1cc(Br)cc(Br)c1O | inconclusive: 15.8 µM [inhibitor, partial curve]
O=[N+]([O-])c1ccc(-n2nnnc2-c2ccccc2)c([N+](=O)[O-])c1 | active: 14.1 µM
Clc1ccccc1CSc1cc2c(nn1)-c1ccccc1CC2 | inconclusive: 11.2 µM [inhibitor, partial curve, poor fit]
CC(=O)Nc1cccc(Nc2nc3ccccc3n3c(C)nnc23)c1 | inconclusive: 28.2 µM [activator, single point]
CCOC(=O)N1CCN(C(=O)CSCc2ccccc2Cl)CC1 | inconclusive: 12.6 µM [inhibitor, partial curve]
CCc1c(C)sc(NC(=O)CC#N)c1C#N | inconclusive: 22.4 µM [inhibitor, partial curve]
CCN1/C(=C/c2sc(-c3ccccc3C)c[n+]2C)Sc2ccccc21 | inconclusive: 28.2 µM [inhibitor, partial curve]
C/C(=N\N1CCN(Cc2ccccc2Cl)CC1)c1ccc(F)cc1 | inconclusive: 35.5 µM [inhibitor, partial curve, poor fit]
COc1ccc2nc(NC(=O)c3cccc(OCc4c(C)noc4C)c3)sc2c1 | inactive
CCc1ccc(NC(=O)c2cc(C(C)C)on2)cc1 | inactive
COc1ccc(/C(C)=N/NC(=O)c2ccc(N(C)C)cc2)cc1 | inconclusive: 5.62 µM [inhibitor, partial curve]
CCCCn1c(N)c(-c2nc3ccccc3s2)c2c([N+](=O)[O-])nn(C)c(=O)c21 | active: 14.1 µM
COc1cccc(-n2nnnc2S(C)(=O)=O)c1 | inconclusive: 3.16 µM [inhibitor, partial curve]
COC(=O)c1ccc(NS(=O)(=O)c2ccc3[nH]c4c(c3c2)CCCC4)cc1 | inactive
COc1ccccc1NC(=O)c1ccc(-c2nn(C)c(=O)c3ccccc23)cc1 | inconclusive: 35.5 µM [inhibitor, partial curve, poor fit]
Cc1ccc(C)c(NC(=O)CNS(=O)(=O)c2ccccc2)c1 | inactive
COc1ccc(OC)c(NC(=O)c2cnc(N3CCCCC3)c3ccccc23)c1 | inconclusive: 20 µM [inhibitor, single point]
